Paper PMC5173324
Read-outs that look alike come from different tables or passages of the source. Results are given in words; binding and its absence hold for the method and conditions named. For part of these data: In cells and extracts the contact can be indirect. Some entries that bind do so weakly or less than the wild type. For part of these data: Tags and fused reporters may be left off the sequences shown.

The chains behind the UniProt entries cited, without tags or fusion partners. Where a name states a change or a piece, a line headed by the entry shows the natural chain unless it says otherwise.
UniProt O43865: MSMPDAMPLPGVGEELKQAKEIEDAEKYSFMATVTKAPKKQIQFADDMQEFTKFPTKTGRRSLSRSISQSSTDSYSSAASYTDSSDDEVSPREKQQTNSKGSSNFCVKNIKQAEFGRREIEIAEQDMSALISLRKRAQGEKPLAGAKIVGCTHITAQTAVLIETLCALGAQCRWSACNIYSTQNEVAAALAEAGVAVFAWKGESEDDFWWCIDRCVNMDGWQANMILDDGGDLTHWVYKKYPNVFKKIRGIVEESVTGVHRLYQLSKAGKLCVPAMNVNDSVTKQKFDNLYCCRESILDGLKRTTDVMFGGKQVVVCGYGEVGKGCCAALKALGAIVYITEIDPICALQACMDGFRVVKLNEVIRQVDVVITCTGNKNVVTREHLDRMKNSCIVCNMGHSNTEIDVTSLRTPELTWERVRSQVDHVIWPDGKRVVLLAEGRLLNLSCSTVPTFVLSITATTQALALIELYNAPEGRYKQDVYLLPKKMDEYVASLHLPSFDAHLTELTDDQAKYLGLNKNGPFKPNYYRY
UniProt Q14571: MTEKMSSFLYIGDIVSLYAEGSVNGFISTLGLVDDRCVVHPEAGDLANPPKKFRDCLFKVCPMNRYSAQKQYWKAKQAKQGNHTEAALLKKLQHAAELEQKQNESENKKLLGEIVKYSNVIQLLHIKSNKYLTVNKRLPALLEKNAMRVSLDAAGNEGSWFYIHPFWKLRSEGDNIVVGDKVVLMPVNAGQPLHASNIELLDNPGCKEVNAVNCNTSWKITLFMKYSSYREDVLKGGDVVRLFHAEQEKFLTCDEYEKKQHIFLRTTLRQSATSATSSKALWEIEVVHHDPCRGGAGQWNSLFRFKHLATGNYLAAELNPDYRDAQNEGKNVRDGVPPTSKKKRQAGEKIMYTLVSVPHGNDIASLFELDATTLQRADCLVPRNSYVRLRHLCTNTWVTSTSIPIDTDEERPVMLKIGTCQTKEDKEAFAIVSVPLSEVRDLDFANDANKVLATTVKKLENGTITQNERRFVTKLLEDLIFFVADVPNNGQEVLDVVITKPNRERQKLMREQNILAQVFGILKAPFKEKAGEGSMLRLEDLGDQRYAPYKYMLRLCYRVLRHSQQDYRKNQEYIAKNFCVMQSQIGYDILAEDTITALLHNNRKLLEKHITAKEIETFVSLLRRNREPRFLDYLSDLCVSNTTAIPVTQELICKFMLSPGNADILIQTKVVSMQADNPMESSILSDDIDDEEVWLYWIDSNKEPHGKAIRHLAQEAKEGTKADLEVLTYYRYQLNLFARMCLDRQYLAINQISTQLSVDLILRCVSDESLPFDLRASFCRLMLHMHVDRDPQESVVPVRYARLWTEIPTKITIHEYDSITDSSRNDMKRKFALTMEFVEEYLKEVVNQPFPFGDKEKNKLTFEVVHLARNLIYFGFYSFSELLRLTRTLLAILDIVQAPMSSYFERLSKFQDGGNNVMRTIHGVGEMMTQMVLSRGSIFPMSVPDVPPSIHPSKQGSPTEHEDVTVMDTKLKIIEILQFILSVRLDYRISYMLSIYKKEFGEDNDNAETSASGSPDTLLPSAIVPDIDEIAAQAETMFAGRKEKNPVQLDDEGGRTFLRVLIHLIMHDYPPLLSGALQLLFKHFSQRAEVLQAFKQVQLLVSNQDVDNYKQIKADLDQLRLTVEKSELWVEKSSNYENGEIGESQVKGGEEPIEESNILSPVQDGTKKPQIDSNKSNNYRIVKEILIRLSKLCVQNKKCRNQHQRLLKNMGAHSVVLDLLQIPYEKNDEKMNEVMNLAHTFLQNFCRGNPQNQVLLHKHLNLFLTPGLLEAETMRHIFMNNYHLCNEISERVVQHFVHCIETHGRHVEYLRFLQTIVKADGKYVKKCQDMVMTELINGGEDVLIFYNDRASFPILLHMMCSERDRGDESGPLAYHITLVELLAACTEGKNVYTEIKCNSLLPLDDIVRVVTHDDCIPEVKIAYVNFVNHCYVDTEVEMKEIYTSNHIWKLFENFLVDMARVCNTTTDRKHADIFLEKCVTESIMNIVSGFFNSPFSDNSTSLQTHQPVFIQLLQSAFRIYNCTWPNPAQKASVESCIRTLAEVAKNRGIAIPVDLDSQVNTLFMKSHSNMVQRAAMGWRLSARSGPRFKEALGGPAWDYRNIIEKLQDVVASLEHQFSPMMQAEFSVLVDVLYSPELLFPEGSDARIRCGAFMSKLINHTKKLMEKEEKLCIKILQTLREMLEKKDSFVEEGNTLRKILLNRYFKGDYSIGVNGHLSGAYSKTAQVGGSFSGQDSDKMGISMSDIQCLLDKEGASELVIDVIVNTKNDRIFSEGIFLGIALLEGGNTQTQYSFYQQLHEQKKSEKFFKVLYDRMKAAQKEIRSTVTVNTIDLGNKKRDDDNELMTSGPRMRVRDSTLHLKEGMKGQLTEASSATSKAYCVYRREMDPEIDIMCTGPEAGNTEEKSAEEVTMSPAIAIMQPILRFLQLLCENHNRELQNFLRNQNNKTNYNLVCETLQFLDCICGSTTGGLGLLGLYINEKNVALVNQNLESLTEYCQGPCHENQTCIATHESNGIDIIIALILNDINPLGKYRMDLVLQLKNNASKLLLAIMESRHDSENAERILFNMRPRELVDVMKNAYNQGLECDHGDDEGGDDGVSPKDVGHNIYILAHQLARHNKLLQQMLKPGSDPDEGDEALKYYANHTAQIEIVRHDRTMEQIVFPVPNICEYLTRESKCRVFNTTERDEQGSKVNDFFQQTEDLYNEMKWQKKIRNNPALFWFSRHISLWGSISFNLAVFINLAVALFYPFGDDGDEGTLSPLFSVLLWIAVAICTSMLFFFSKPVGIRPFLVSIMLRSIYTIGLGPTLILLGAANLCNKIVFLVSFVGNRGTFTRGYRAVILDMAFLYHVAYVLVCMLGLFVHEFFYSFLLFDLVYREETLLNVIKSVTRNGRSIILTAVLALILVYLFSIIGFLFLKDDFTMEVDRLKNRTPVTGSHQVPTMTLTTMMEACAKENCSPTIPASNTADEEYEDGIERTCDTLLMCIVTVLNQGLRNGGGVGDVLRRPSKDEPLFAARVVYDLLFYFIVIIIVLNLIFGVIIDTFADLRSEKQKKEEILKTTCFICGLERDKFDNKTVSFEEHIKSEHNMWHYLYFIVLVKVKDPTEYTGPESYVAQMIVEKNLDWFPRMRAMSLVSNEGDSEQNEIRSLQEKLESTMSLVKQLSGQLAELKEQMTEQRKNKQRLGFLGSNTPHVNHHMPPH
UniProt Q14573: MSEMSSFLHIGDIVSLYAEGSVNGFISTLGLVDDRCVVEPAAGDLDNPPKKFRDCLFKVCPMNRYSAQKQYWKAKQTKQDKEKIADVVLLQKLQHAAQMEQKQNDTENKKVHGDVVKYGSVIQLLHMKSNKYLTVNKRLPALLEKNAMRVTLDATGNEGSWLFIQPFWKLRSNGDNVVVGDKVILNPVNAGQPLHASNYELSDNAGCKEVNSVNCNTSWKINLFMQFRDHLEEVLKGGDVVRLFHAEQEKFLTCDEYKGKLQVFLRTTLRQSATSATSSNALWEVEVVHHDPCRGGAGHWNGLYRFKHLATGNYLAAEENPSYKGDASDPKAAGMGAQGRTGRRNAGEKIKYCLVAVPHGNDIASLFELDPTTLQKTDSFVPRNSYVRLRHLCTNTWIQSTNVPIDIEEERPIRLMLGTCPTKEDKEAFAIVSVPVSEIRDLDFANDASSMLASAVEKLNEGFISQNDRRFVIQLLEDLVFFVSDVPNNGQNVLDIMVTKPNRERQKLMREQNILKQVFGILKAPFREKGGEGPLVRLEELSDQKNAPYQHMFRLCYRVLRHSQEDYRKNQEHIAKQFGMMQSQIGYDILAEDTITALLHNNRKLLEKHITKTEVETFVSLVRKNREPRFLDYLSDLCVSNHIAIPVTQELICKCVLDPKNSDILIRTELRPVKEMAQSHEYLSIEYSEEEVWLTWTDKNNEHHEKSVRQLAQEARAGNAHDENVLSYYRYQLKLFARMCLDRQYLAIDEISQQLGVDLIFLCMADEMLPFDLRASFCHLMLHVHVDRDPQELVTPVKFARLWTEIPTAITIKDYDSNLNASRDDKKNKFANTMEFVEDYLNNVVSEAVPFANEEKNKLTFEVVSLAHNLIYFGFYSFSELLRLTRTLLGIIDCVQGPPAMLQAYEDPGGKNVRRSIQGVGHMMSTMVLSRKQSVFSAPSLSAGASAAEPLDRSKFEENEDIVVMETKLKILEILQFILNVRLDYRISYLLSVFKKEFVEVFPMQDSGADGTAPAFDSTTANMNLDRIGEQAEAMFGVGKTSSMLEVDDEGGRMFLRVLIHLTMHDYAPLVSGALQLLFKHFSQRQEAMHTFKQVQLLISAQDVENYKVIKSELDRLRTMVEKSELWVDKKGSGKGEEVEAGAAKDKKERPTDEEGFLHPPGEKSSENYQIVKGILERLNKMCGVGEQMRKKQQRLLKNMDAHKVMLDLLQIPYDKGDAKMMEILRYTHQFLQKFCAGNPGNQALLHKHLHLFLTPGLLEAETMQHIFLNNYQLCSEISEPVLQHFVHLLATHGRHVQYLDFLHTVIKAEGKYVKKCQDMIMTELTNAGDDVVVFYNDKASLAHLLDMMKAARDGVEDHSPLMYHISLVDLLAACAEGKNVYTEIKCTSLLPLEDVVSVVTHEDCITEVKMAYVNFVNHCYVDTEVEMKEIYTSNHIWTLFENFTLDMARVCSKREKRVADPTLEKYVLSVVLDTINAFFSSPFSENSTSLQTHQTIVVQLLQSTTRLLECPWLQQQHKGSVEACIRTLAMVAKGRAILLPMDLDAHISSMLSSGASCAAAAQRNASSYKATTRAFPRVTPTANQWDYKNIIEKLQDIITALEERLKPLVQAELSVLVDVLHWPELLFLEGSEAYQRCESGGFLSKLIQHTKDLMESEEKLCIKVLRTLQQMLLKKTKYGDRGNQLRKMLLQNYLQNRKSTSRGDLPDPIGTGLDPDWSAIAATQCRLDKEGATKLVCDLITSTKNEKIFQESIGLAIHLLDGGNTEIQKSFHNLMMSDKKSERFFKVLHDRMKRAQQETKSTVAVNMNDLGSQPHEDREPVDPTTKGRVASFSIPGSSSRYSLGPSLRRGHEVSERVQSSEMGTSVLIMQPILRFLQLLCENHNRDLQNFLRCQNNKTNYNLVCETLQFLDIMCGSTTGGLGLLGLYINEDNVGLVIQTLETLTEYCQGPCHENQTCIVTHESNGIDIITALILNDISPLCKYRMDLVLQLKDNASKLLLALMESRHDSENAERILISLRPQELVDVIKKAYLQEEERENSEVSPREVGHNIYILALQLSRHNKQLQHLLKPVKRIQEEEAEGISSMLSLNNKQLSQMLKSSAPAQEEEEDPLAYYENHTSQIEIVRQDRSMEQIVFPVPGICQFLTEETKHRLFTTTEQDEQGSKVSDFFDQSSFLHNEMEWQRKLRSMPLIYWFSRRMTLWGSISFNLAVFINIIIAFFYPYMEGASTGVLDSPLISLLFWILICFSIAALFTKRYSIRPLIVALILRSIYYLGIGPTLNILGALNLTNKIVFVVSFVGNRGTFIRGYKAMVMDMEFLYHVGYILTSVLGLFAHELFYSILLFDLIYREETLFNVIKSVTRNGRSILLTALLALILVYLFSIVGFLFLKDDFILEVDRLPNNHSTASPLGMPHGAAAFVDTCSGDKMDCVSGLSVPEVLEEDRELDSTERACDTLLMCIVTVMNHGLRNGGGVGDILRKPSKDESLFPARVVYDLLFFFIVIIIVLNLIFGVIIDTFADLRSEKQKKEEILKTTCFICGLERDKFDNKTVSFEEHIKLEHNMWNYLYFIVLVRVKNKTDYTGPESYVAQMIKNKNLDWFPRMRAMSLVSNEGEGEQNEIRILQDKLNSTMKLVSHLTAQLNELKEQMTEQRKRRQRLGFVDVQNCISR
UniProt Q80SW1: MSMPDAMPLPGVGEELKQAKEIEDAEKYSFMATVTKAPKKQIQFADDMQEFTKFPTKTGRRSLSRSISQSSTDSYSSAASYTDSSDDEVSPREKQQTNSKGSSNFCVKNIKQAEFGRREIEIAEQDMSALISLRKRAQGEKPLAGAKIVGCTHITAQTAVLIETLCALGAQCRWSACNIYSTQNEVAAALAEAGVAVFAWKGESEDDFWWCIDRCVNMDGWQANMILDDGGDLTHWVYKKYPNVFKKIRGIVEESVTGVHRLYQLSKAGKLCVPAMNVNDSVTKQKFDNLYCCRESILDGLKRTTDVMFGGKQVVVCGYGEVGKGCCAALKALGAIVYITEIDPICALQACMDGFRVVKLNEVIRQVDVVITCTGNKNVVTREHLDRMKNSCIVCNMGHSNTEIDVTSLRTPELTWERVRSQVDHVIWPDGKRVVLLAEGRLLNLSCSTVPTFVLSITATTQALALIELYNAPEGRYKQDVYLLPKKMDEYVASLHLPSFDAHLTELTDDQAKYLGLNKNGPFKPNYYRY

T1: FLAG-Bcl2l10 (human) (UniProt Q9HD36)
T1 sequence: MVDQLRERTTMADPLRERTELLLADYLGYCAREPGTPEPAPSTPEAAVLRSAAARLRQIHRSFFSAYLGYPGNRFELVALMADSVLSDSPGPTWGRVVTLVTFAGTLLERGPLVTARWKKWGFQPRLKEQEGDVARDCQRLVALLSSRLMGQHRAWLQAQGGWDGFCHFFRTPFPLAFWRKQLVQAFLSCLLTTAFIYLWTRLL


Key:
[1] = biological target: T1, FLAG-Bcl2l10 (human); assay: co-IP; tagged proteins co-expressed in HeLa cells, lysate in TNE buffer, 4°C, Protein-G sepharose, western blot
[2] = biological target: GST-IP3BD (UniProt P11881); assay: pull-down; 10 μg GST fusion protein incubated with lysates of transfected HeLa cells, TNE buffer, 4°C, glutathione-Sepharose 4B, elution with 20 mM glutathione, western blot; for HA-IRBIT also with co-expressed FLAG-Bcl2l10 and with 0, 1 or 10 µM IP3; only the target purified
[3] = biological target: endogenous IRBIT (human (endogenous in HeLa)) (UniProt O43865); assay: native gel or EMSA; 2D blue-native / SDS-PAGE of a digitonin-solubilised crude mitochondria fraction of HeLa cells; second dimension analysed by western blot
[4] = biological target: endogenous IP3R1 (human (endogenous in HeLa)) (UniProt Q14643); assay: co-IP; endogenous proteins immunoprecipitated from HeLa cell extract in TNE buffer (10 mM Tris-HCl pH 7.4, 200 mM NaCl, 1 mM EDTA, 0.2% NP-40), 4°C, Protein-G sepharose, western blot
[5] = biological target: endogenous IP3R2 (human (endogenous in HeLa)) (UniProt Q14571); assay: as above
[6] = biological target: endogenous IP3R3 (human (endogenous in HeLa)) (UniProt Q14573); assay: as above
[7] = biological target: endogenous IRBIT (human (endogenous in HeLa)) (UniProt O43865); assay: as above
[8] = biological target: GST-IP3BD (UniProt P11881); assay: pull-down; 10 μg GST fusion protein incubated with lysates of transfected HeLa cells, TNE buffer, 4°C, glutathione-Sepharose 4B, elution with 20 mM glutathione, western blot; for HA-IRBIT also with co-expressed FLAG-Bcl2l10 and with 0, 1 or 10 µM IP3; only the target purified; remark: listed apart in the source

Molecule | binding [1] | further results
EGFP-IRBIT 1–104 (from UniProt Q80SW1 1-104) (domain or fragment) | no binding | –
EGFP-IRBIT 1–138 (from UniProt Q80SW1 1-138) (domain or fragment) | no binding | –
EGFP-IRBIT 1–169 (from UniProt Q80SW1 1-169) (domain or fragment) | binds weakly | –
EGFP-IRBIT 1–201 (from UniProt Q80SW1 1-201) (domain or fragment) | binds | –
EGFP-IRBIT 1–231 (from UniProt Q80SW1 1-231) (domain or fragment) | binds | –
HA-IRBIT (from UniProt Q80SW1 1-530) | binds | binding [2]: binds
HA-IRBIT S68A (from UniProt Q80SW1 1-530) | binds | –
HA-tagged IRBIT with the first 104 amino acids deleted (from UniProt Q80SW1 105-530) (domain or fragment) | binds | –
endogenous Bcl2l10 (protein, UniProt Q9HD36 1-204) MVDQLRERTTMADPLRERTELLLADYLGYCAREPGTPEPAPSTPEAAVLRSAAARLRQIHRSFFSAYLGYPGNRFELVALMADSVLSDSPGPTWGRVVTLVTFAGTLLERGPLVTARWKKWGFQPRLKEQEGDVARDCQRLVALLSSRLMGQHRAWLQAQGGWDGFCHFFRTPFPLAFWRKQLVQAFLSCLLTTAFIYLWTRLL | – | binding [3]: binds; binding [4]: binds; binding [5]: binds; binding [6]: binds; binding [7]: binds
FLAG-Bcl2l10 (protein, UniProt Q9HD36 1-204) MVDQLRERTTMADPLRERTELLLADYLGYCAREPGTPEPAPSTPEAAVLRSAAARLRQIHRSFFSAYLGYPGNRFELVALMADSVLSDSPGPTWGRVVTLVTFAGTLLERGPLVTARWKKWGFQPRLKEQEGDVARDCQRLVALLSSRLMGQHRAWLQAQGGWDGFCHFFRTPFPLAFWRKQLVQAFLSCLLTTAFIYLWTRLL | – | binding [8]: binds
